Experimental data from paper PMC8752837, “Structural basis of BAK activation in mitochondrial apoptosis initiation” (Nature Communications, 2022).
Where two headings read alike, the source gives them in different places. For part of its entries the source gives two or more results. They are shown here; other results are not. There may be further records. For some assays here: The records of an entry read as repeated measurements on other runs, samples or individuals; a mean can stand among them. Entries with a single value are a further part of the results.

Target: GST-BAK (human) (UniProt Q16611)
UniProt Q16611, sequence (Q16611 whole entry): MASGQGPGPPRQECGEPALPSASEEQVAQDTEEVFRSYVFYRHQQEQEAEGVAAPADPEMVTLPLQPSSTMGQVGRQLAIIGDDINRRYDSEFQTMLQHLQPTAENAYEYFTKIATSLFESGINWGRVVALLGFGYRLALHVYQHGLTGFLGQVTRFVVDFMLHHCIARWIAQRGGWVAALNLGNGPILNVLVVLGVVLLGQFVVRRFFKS
Test: fluorescence polarisation; competitive: displacement of 10 nM BID BH3 SAHB-fluorescein from 1 µM GST-BAK by BH3 peptides in dose response; 50 mM Tris-HCl pH 7.5, 50 mM KCl, 0.1 mg/mL BSA, 2 mM DTT, 0.005% Tween-20; 60 min at RT; IC50 from percent inhibition, 4-parameter fit

Substance: W(5) BID BH3 peptide
- IC50: 10.9, 9.86, 9.96, 6.42, 8.23, 7.4, 10.4, 8.24, 7.77 µM [columns of one line]
- IC50 (mean of experiments): 8.79 µM

Substance: WT BID BH3 peptide
- IC50: 12.7, 6.93, 15.4, 8.8, 11, 9.27, 11.6, 22.2 µM [columns of one line]

Substance: W(3) BID BH3 peptide
- IC50: 7.12, 5.47, 7.79, 5.63, 5.62, 7.05, 5.66, 7.11, 8.02 µM [columns of one line]
- IC50 (mean of experiments): 6.61 µM
